Target: the molecule itself
Experiment: SEC-MALS

B1: folded core region of TAF-Iβ (cTAF-Iβ), […] (domain or fragment)
chain: not shown
stoichiometry N: 2

Reference: paper PMC9489631 (Journal of molecular biology, 2022)
